Screen size: about 43,000 compounds; about 200 (0.47%) were called active. Inconclusive results (about 12%) are left out. Calls follow the shape of the dose curve; as a rule, active = well fitted cell-killing curve with a large enough effect; inconclusive = small, poorly fitted or top-dose-only effect, or effect the other way; inactive = flat fitted curve, though single readings scatter. This is one part of the list.
Assay: Cell viability qHTS assay in S16 Pmp22-F2sN cells; also: nearly all actives have a fitted effect of over 65% in size
Conditions: S16 Pmp22-F2sN Schwann cells (luciferase reporters placed in the Pmp22 gene) viability, CellTiter-Glo, 24 h; series mostly up to 57.5 µM; activity change, negative = cytotoxicity: at the top concentration
In short: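 Rat S16 Schwann reporter line, 24 h treatment with library compounds delivered at 23 nL per well. Cell viability by CellTiter-Glo luminescence.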
% is scaled to controls: 0 for no effect and ±100 for the full control effect.

Compound	activity change, negative = cytotoxicity
COc1ccc(N2CCN(c3oc(-c4ccccc4C)nc3S(=O)(=O)c3ccccc3)CC2)cc1	inactive: -2.08%
CC1=C(C(=O)Nc2cccc(Cl)c2)C2(CCCCCC2)OC1=O	inactive: 3.11%
COc1cc(NC(=O)Cn2nc(C(F)(F)F)c3c2CCCC3)cc(OC)c1OC	inactive: 6.62%
COc1ccccc1NC(=O)Cn1c(=O)n(CCc2ccccc2)c(=O)c2sc3ccccc3c21	inactive: 8.21%
CCOc1ccccc1CNC(=O)CCCn1nc(C)c2sc3ccccc3c2c1=O	inactive: 2.37%
Cc1cccc(CSc2nc3ccncc3n2Cc2ccc(C(=O)O)cc2)c1	inactive: 1.76%
Cc1ccc(OCc2ccc(-c3nc(C#N)c(N4CCN(c5cccc(Cl)c5)CC4)o3)o2)cc1	inactive: -2.13%
O=C(Nc1ccc(-c2cn3cccnc3n2)cc1)c1ccccc1F	inactive: 10.8%
Cc1ccccc1Nc1cc(C(=O)NC2CCC(C)CC2)c2ccccc2n1 (configuration not stated)	inactive: 8.2%
CCOC(=O)c1ccc(NC(=O)c2c(NCc3cccc(OC)c3)sc3c2CCC3)cc1	inactive: -26.5%
Cc1cccc(C)c1NC(=O)N1CCC(C(N)=O)(N2CCCCC2)CC1	inactive: 4.14%
O=C(Nc1ccc(F)cc1F)c1cc2ccc3cccnc3c2[nH]1	inactive: 11.5%
COc1ccc(-c2nc(Cn3c(SCc4cccc(F)c4)nc4cccnc43)c(C)o2)cc1	inactive: -18.5%
COc1cccc(C(=O)NCC(c2ccc(N(C)C)cc2)N2CCc3ccccc32)c1OC (configuration not stated)	inactive: 5.62%
COc1ccc2oc(-c3ccc(C)c(NC(=O)c4sc5ccccc5c4Cl)c3)nc2c1	inactive: -4.03%
CC(C)c1ccc(C(=O)Nc2ccc(-c3nc4ccccc4s3)c(Cl)c2)cc1	inactive: 7.14%
COc1cccc(-n2c(-c3ccco3)nc3c(cnn3-c3ccccc3C)c2=O)c1	inactive: -19.2%
Cn1cc(C(=O)N2CCN(c3cccc(Cl)c3)CC2)c(=O)c2cc(S(=O)(=O)N3CCCC3)ccc21	inactive: -20.1%
COc1ccc(C)cc1NC(=O)CN1CCCN(S(=O)(=O)c2ccc(Br)cc2)CC1	inactive: -29%
CCOc1ccccc1NC(=O)c1c(NC(=O)Cc2ccccc2)sc2c1CCCC2	inactive: 17.5%
COC(=O)CSCc1nc(-c2ccc(C(=O)OC)cc2)oc1C	inactive: 6.27%
O=C(CCNS(=O)(=O)c1cccc2nonc12)Nc1ccc(F)cc1	inactive: 24.8%
COC(=O)c1cccc(Nc2c(-c3ccc(O)cc3)nc3nc[nH]n23)c1	inactive: -4.04%
COC(=O)c1cc(OC)c(OC)c(OC)c1NC(=O)c1cc(=O)n(C)c(=O)n1C	inactive: -24.8%
CCOc1ccc(NC(=O)CSc2ccc3ccccc3n2)cc1	inactive: -2.26%

Compound	activity change, negative = cytotoxicity
COCCCNC(=O)CN1C(=O)COc2ccc(S(=O)(=O)N3CCOCC3)cc21	inactive: -0.548%
CC(C)Oc1ccc(CNC(=O)c2ccc3c(c2)N(Cc2ccc(F)cc2)CCS3)cc1	inactive: 1.25%
Clc1ccccc1CNc1nc2ccccc2c2nc(-c3ccccc3)nn12	inactive: 21.7%
O=C(Cn1ncc2c3ccccc3n(Cc3ccc(F)cc3)c2c1=O)NC1CCCCCC1	inactive: 1.11%
CCOC(=O)c1cc(-c2ccccc2)n(-c2cccc(C(=O)NC(C)CC)c2)c1C (configuration not stated)	inactive: -8.62%
COc1ccc(Nc2nc(-c3ccccc3)c3cc(Br)ccc3n2)cc1	inactive: 14.4%
Cc1ccc(C)c(NC(=O)N2CCN(c3nnc(C)c4c(C)n(-c5ccccc5)nc34)CC2)c1	inactive: -3.26%
COc1cc2c(cc1OC)C(COc1ccccc1OC)N(C(=O)c1ccc(S(=O)(=O)N3CCCC3)cc1)CC2 (configuration not stated)	inactive: 0.717%
Cc1c(C(=O)N(C)c2ccccc2)sc2nc(-c3ccc(F)cc3)cn12	inactive: -9.97%
CCc1cc2c(cc3c(=O)n(CC(=O)NC4CCC(C)CC4)nc(CC)n32)s1 (configuration not stated)	inactive: 13%
O=C(Nc1cccc2cccnc12)c1cccc2c(Br)cccc12	inactive: 1.49%
O=C1c2oc3ccccc3c(=O)c2C(c2ccccc2F)N1Cc1ccc2c(c1)OCO2 (configuration not stated)	inactive: -4.58%
Cc1ccccc1OCC(=O)NCC(c1ccc(Cl)cc1)N1CCOCC1 (configuration not stated)	inactive: 3.65%
CN(C(=O)CSc1cn(CC(=O)N2CCCC2)c2ccccc12)c1ccccc1	inactive: -1.07%
O=C(Nc1ccc(Br)cc1F)c1ccc2nc(CCc3ccccc3)oc2c1	inactive: -14.3%
CCN(CC)CCNC(=O)c1sc2nc(C)cc(C)c2c1-n1cccc1	inactive: 13.6%
COc1ccc(-n2c(Cc3ccccc3)nnc2SCc2nc(-c3ccccc3C)no2)cc1	inactive: -3.93%
Cc1ccc2onc(CNC(=O)N(C)Cc3ccccc3)c2c1	inactive: 8.37%
COc1ccc(NC(=O)Cn2ccn(Cc3ccccc3)c(=O)c2=O)cc1Cl	inactive: -0.149%
CCc1ccccc1NC(=O)Cn1c(C(=O)OC)cc2oc(C)cc21	inactive: -0.0664%
CCOC(=O)c1ccc(NC(=O)c2cccc3c(=O)c4c([nH]c23)CCCC4)cc1	inactive: 7.4%
COCCCNC(=O)c1sc2nc(C)c(C(=O)Nc3ccc(Cl)cc3)c(-c3ccc(Br)cc3)c2c1N	inactive: -1.01%
CC1N=C2c3ccccc3N=C(SCC(=O)NCc3ccc(Cl)cc3)N2C1=O (configuration not stated)	inactive: 1.05%
COc1cccc(NC(=O)CSc2cc(C)[nH]c(=O)n2)c1	inactive: 9.07%
CCN(CC)c1nn2c(=O)c(C(=O)NCc3cccc(OC)c3OC)cnc2s1	inactive: 3.05%

Compound	activity change, negative = cytotoxicity
COc1ccc(CNC(=O)c2cnn(-c3ccc(OC)cc3)c2C2CCN(C(=O)OC(C)(C)C)CC2)cc1	inactive: -13.5%
Cc1nc(SCC(=O)Nc2ccccc2Cl)cc(-c2ccccc2)n1	inactive: 13.5%
Cc1c2cnn(-c3ccccc3)c(=O)c2c(C)n1CC(=O)N1CCN(c2cccc(Cl)c2)CC1	inactive: -11.8%
COc1cccc(-c2n[nH]c3c2C(c2cccc(O)c2)N(C)C3=O)c1 (configuration not stated)	inactive: -22.4%
CCS(=O)(=O)N1CC(=O)N(c2cccc(C)c2C)C(C)(C(=O)NC2CCCCCC2)C1 (configuration not stated)	inactive: -4.43%
CCOc1ccc(NC(=O)Cn2cc(C(=O)c3ccc(C)c(C)c3)c(=O)c3cc(F)ccc32)cc1	inactive: 9.12%
Cc1ccc(Cl)cc1NC(=O)Cn1c(=O)n(CCC(=O)N2CCc3ccccc3C2)c(=O)c2ccccc21	inactive: -7.72%
Cc1ccc(CNC(=O)c2ccc3c(c2)N(Cc2cccc(Cl)c2)C(=O)CS3)cc1	inactive: 6.66%
Cc1cc(O)c(C(=O)c2cnc3c(c2)COc2ccccc2-3)cc1Cl	inactive: 16.4%
CCN(c1ccc(C)cc1C)S(=O)(=O)c1nnc(NC(=O)CC(C)C)s1	inactive: -3.47%
COc1cc(NC(=O)CSc2nc3nc(C)c(Cc4ccccc4)c(C)n3n2)cc(OC)c1	inactive: 12.3%
CCOc1ccc2nc(N3CCCC(C(=O)NCCc4ccc(SC)cc4)C3)sc2c1 (configuration not stated)	inactive: -10.8%
Cc1cc(C)cc(OCC(=O)Nc2cccc(-c3nc4ccccc4[nH]3)c2)c1	inactive: -6.01%
O=C(Cn1c(=O)n(-c2ccc(F)cc2)c(=O)c2sccc21)Nc1cccc(C(F)(F)F)c1	inactive: -27.9%
COc1ccc(-n2nc3c(c2NC(=O)C(=O)N2CCN(C)CC2)CSC3)cc1	inactive: -2.52%
CCOC(=O)c1cc2c(=O)n3ccccc3nc2n(Cc2ccco2)c1=NC(=O)c1ccccc1OC	inactive: -14.6%
Cc1ccc(NC(=O)C2CCCN(c3nnc(C)c4c(C)n(-c5ccccc5)nc34)C2)cc1Cl (configuration not stated)	inactive: 0.136%
Cc1c2cnn(CC(=O)Nc3ccc(F)cc3F)c(=O)c2c(C)n1Cc1cccc(Cl)c1	inactive: 3.21%
CCC(=O)N1CCc2cc(S(=O)(=O)CCC(=O)NCc3ccc(F)cc3)ccc21	inactive: -2.14%
CC(C)NC(=O)c1cc2c(Cl)nc3ccccc3c2s1	inactive: 6.46%
Cc1ccc(-n2nc3c(=O)n(C(C)C(=O)O)nc(C)c3c2C)cc1 (configuration not stated)	inactive: 19.7%
COc1cccc(CNC(=O)Cn2c(=O)oc3cc(S(=O)(=O)N4CCC(C)CC4)ccc32)c1	inactive: -19.1%
Cc1ccc(-n2nc(CO)c(C(=O)NCCc3ccccc3)n2)cc1C	inactive: 5.13%
CCc1ccc(N2C(=O)CS(=O)(=O)C23C(=O)N(Cc2ccccc2)c2ccccc23)cc1 (configuration not stated)	inactive: -1.75%
COc1cc(-c2noc(-c3nnn(-c4ccc(Cl)cc4)c3C)n2)cc(OC)c1OC	inactive: 3.49%

Compound	activity change, negative = cytotoxicity
CCc1cccc(C)c1Nc1c(-c2ccc(N3CCOCC3)cc2)nc2ncccn12	inactive: -2.34%
CC(=O)c1ccc(NC(=O)C2CCCN(S(=O)(=O)c3cn(C)cn3)C2)cc1 (configuration not stated)	inactive: 5.62%
CCOC(=O)C1CCCN(C(=O)c2cc3c(=O)n(C)c4ccccc4c3s2)C1 (configuration not stated)	inactive: 3.04%
Cc1c(CNC(C)c2ccccc2)c(C(=O)O)c(C)n1Cc1c(F)cccc1Cl (configuration not stated)	inactive: -0.576%
COC(=O)c1cc2sccc2n1Cc1ccccc1	inactive: -1.84%
CC1=C(C(=O)Nc2ccccc2Cl)C(c2cccs2)n2ncnc2N1 (configuration not stated)	inactive: -1.77%
O=C(CCC1N=C2c3ccccc3N=C(SCc3cccc(F)c3)N2C1=O)NC1CCCCC1 (configuration not stated)	inactive: 5.27%
Cc1ccc(SCC(=O)Nc2cccc(-c3nc4cc(Cl)ccc4o3)c2C)cc1	inactive: 0.727%
CCn1cc2nc(SCc3cccc(OC)c3)n(Cc3ccc(Cl)cc3)c(=O)c2n1	inactive: -6.17%
CCCOc1ccc(CNC(=O)C2CCN(c3nc4ccccc4nc3C(F)(F)F)CC2)cc1	inactive: -2.84%
Cc1cc(NS(=O)(=O)c2ccc(NC(=O)COc3c(C)cc(Br)cc3C)cc2)no1	inactive: -1.46%
O=S(=O)(NCc1ccccc1)c1ccc2[nH]c3c(c2c1)CCCCC3	inactive: -5.2%
COc1cccc(NS(=O)(=O)c2ccc3[nH]cc(C(=O)NC4CCCCC4)c(=O)c3c2)c1	inactive: -7.51%
COc1ccc(Cl)cc1NC(=O)CN1c2ccccc2S(=O)(=O)c2ccccc21	inactive: 6.25%
O=C(CSC1=Nc2ccccc2N=C(c2ccc(F)cc2)C1)Nc1cc(F)ccc1F	inactive: 14%
O=C(NC1CC(=O)N(c2cccc(F)c2)C1)C1CCCCC1 (configuration not stated)	inactive: 8.48%
COc1ccc(N2C(=O)C(CC(=O)Nc3ccc(F)cc3)N(CCC3=CCCCC3)C2=O)cc1 (configuration not stated)	inactive: -10.2%
COc1ccccc1CCNC(=O)Cc1c(C)c2c(cc(C)c3c(C)coc32)oc1=O	inactive: 4.02%
CN(C(=O)Nc1cn(C)c(=O)c2ccccc12)c1ccccc1	inactive: 6.92%
COCCCNC(=O)c1c(NC(=O)c2cc(=O)c3cc(C)c(C)cc3o2)sc2c1CCCC2	inactive: -3.94%
COc1ccccc1CCNC(=O)c1cc2ccccn2n1	inactive: -3.92%
CCCN1C(=O)CN(C2CCCCCC2)C(=O)C1c1ccc(OCC)c(OC)c1 (configuration not stated)	inactive: -1.49%
